Data as given in PMC8730729.
These are yes or no findings as the source states them, for the method shown. Binding seen in cells or lysates may run through a third protein. Some results given as binding are weak or reduced against the parent protein; the word gives no strength. Where a sequence is shown, tags or fusion partners need not be part of it.

The chains behind the UniProt entries cited, without tags or fusion partners.
UniProt Q86V87: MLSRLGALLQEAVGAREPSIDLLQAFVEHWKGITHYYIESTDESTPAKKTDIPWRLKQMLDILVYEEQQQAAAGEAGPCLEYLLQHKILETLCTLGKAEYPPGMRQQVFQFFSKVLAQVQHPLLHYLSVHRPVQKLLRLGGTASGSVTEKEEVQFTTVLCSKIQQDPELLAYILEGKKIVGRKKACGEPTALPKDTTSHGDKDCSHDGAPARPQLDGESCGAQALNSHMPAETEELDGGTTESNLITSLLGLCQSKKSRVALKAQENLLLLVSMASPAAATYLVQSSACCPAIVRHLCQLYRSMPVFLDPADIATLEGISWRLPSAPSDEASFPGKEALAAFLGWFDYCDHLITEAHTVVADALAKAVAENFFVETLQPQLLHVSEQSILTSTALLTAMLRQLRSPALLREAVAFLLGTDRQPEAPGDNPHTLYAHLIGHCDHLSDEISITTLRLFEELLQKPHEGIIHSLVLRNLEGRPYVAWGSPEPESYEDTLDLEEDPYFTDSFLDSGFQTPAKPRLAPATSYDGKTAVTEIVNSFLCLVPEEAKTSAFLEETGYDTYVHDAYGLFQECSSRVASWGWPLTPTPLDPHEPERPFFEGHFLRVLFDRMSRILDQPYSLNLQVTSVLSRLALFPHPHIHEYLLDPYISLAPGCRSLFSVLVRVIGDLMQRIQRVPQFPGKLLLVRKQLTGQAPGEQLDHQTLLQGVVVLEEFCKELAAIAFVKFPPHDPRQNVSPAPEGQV

Key:
[1] = molecular target: FHIP1A tagged at the carboxy terminus with BioID2 and 3xFLAG (human) (UniProt Q05DH4); test: co-IP; FLAG affinity resin IP of FHIP-BioID2-3xFLAG baits from stable 293T cell lines; immunoblots with anti-Hook1, anti-Hook2, anti-Hook3; BioID2-3xFLAG as control
[2] = molecular target: T1, HaloTag-Hook3-3xFLAG (human) (UniProt Q86VS8); test: co-IP; FLAG affinity resin IP of HaloTag-Hook-3xFLAG baits from transiently transfected 293T cells; immunoblots with anti-FHIP1B, anti-FHIP2A, anti-FHIP2B; sfGFP-3xFLAG as control
T1 sequence: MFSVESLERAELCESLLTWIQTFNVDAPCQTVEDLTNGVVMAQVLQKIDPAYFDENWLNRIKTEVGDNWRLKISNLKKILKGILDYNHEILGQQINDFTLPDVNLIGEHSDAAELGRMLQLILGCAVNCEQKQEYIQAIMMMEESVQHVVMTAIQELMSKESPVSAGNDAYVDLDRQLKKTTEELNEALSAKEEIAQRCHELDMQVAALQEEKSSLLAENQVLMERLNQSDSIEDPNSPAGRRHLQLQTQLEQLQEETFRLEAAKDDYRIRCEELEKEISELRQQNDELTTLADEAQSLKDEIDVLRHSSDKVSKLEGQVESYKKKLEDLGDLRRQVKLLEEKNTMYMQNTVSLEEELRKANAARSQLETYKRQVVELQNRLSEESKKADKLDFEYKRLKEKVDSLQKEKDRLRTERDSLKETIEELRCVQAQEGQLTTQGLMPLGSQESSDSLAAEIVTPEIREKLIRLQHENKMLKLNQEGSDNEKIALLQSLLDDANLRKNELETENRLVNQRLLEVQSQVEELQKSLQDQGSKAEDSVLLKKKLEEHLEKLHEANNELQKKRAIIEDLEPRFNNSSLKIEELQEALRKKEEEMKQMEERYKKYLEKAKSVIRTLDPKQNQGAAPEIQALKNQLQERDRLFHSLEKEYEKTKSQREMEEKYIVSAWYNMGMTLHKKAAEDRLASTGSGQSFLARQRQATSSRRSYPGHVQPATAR

Row | Substance | binding [1] | binding [2]
1 | Hook1, endogenous in 293T cells (from UniProt Q9UJC3 1-728) | binds | –
2 | FHIP2B, endogenous in 293T cells (from UniProt Q86V87 1-743) | – | binds
